Reference: PubChem BioAssay AID493208 (National Center for Advancing Translational Sciences (NCATS), 2011)
Out of some 44,000 compounds screened, about 340 (0.77%) were called active. Not shown: some 5% with an inconclusive outcome. Calls follow the shape of the dose curve; as a rule, active = well fitted inhibition curve with a large enough effect; inconclusive = small, poorly fitted or top-dose-only effect; inactive = flat fitted curve, though single readings scatter. The list shows a part of the results.

Assay: Acumen qHTS Assay for Inhibitors of the mTORC1 Signaling Pathway in MEF (Tsc2-/-, p53-/-) Cells: Sytravon; also: nearly all actives have a fitted effect of over 50% in size
Details: phospho-rpS6 immunofluorescence/PI, 24 h; series mostly up to 38.3 µM; activity change, negative = inhibition: at the top concentration
Description: NIH Molecular Libraries Probe Production Centers Network [MLPCN] NIH Chemical Genomics Center [NCGC] MLPCN Grant: NS059428-01 Assay Submitter (PI): Blenis, John; Hoffman, Greg; Harvard University NCGC Assay Overview: The mammalian target of rapamycin (mTOR) is an intracellular serine/threonine kinase Aberrant regulation of mTOR signaling plays a causative role in a number of human diseases, including cancer, benign tumors such as lymphangioleiomyomatosis (LAM) and Tuberous Sclerosis Complex (TSC), and metabolic diseases such as diabetes and obesity. This project aims to identify inhibitors of ribosomal protein S6 (rpS6) phosphorylation. The phosphorylation of rpS6 is a key event downstream of mTOR activation. The assay uses a phospho-specific antibody of phospho-rpS6 to detect inhibitors of mTOR activation. Mutations in the Tsc1 and Tsc2 genes are the underlying genetic lesions responsible for TSC, causing constitutive activation of the mTORC1 pathway and leading to profound effects on cell metabolism. Aberrant metabolism in cancer has recently received significant attention as a target to develop therapeutic agents in the treatment of cancer.1 As Tsc2-/- cells have lost the ability to respond to energy and growth factor deprivation, these cells are unable to properly down regulate cellular biosynthetic processes in response to metabolic stress, and are thus extremely sensitive to glucose deprivation-induced death.2 A central goal of this project is to explore the unique cell survival and metabolic properties of cells with Tsc1 or Tsc2 by screening for compounds that selectively target the Tsc2-/- MEFs by screening both Tsc2-/- and WT MEF cell lines. We hope to better understand these aspects of TSC physiology in order to exploit them for therapeutic benefit.
NCGC Acumen Assay Protocol Summary: For quantitative high throughput analysis of mTORC1 signaling, we developed a cell-based assay for immuno-fluorescence based detection of rpS6 phosphorylation on the Acumen Explorer that will be used a platform for the primary small molecule screen. Mouse embryonic fibroblasts (MEFs) are cultured in 1536-well plates using DMEM + 10% FBS. Twenty-four hrs after plating, test compounds (solubilized in DMSO) are delivered and incubated with the cells for 24 hrs at 37 degree Celsius. Following the incubation, media with compound is aspirated and the cells are fixed in 4% paraformaldehyde (PFA) containing PBS + 0.2% TX-100. Next, PFA is aspirated, cells are washed two times with PBS plus 0.2% TX-100 and the cells are blocked for 1 hr at room temperature (blocking buffer: LiCOR Blocking Buffer plus 0.2% TX-100). […] Cells are washed two times with PBS plus 0.2% TX-100, and stained with 10 uM propidium iodide (PI) for 20-25 minutes for cell number measurement (1:500 dilution of Hoescht staining is also added for IN Cell imaging). The plates are scanned on the Acumen Explorer laser scanning instrument (TTP Labtech) using the 488nm laser for simultaneous excitation of the Alexa-488 and PI. […] The normalized phospho-S6 staining is calculated as the ratio of the integrated Alexa 488 intensity divided by the integrated PI intensity for the single concentration rapamycin control (7.5 nM) and DMSO columns. […] Inhibition of the pathway is defined based on the normalized phospho-S6 intensity in rapamycin treated cells. Active cells are defined as those with a normalized phospho-S6 staining above this threshold, and each treatment is reported as the % positive cells in the well, where thresholds are defined by selecting wells with the highest and lowest signal and differentiating between the % non-active and % active populations. In addition to the pathway specific phospho-S6 endpoint, the number of PI stained cells from the Acumen is recorded as a measure of cell viability. The primary screen was performed with a MEF cell line in a defined genetic background, Tsc2-/-, p53-/- cell line stably transfected with an empty vector control (Tsc2-/- MEF).

Activity change, negative = inhibition, inactive:
COC(=O)c1ccc(NC(=O)CC2C(=O)N(c3ccccc3)C(=O)N2C2CCCC2)cc1 (stereo not given) -0.238%
CCOc1ccc(Nc2c(S(=O)(=O)c3ccc(C)cc3)cnc3ccc(OC)cc23)cc1 -7.58%
COc1cc(C(=O)N2CCC(c3ccncc3)CC2)cc(OC)c1OC -4.26%
COc1ccc(Cn2c(C(=O)O)c(CNC3CCC(C)CC3)c3ccc(C)cc32)cc1 (stereo not given) 1.94%
COc1cccc(CNC(=O)c2cc(-c3cccs3)nc3ccccc23)c1 -0.175%
COCCCNC(=O)CSc1nc2nc(C)c(Cc3ccccc3Cl)c(C)n2n1 -15.9%
CC(=O)N1CCCc2cc(S(=O)(=O)NCc3ccc(N(C)C)cc3)ccc21 -9.83%
COc1cccc(C(=O)Nc2ccc3nc(SCc4ccc(C)cc4)sc3c2)c1 -29.5%
Cn1nc(-c2ccccc2)c(-c2ccccc2)c(C(=O)Nc2ccc(S(N)(=O)=O)cc2)c1=O 1.74%
Cc1cccc(-n2c(SCC(=O)Nc3ccccc3Cl)nc3n[nH]c(C)c3c2=N)c1 4.15%
CCOc1ccc(NC(=O)CN2C(=O)CCSc3ccc(S(=O)(=O)N4CCCC4)cc32)cc1 -1.54%
O=C(NCC(c1cccnc1)N1CCOCC1)C(=O)Nc1cccc(Cl)c1 (stereo not given) 0.756%
CSc1ccc(CCNC(=O)c2sc3ncccc3c2-n2cccc2)cc1 -2.7%
Cc1ccc(C)c(N2CCN(C(=O)C(C)n3nc(C)c4sc5ccccc5c4c3=O)CC2)c1 (stereo not given) 1.85%
COc1cccc(-n2cc(C(=O)NCCc3cccc(C)c3)c3ccccc3c2=O)c1 5.3%
COC(=O)c1ccc(NC(=O)N2CCc3c([nH]c4ccccc34)C2c2ccc(C)cc2)cc1 (stereo not given) -9.78%
O=C(NCc1ccccc1Cl)C(=O)NCC(c1ccco1)S(=O)(=O)c1cccs1 (stereo not given) -0.661%
COc1ccccc1CNC(=O)C1CCN(c2nn3c(=O)cc(C)nc3s2)CC1 0.0309%
CCC1CCCCN1CCCNC(=O)c1cc2c(Cl)nc3ccc(C)cc3c2s1 (stereo not given) -12.1%
Cc1c2cnn(CC(=O)NCCc3ccccc3)c(=O)c2c(C)n1Cc1ccccc1Cl -0.53%
COc1ccc(Cn2c(=O)c3oc4ccccc4c3n(CC(=O)Nc3cc(C)cc(C)c3)c2=O)cc1 -2.97%
CCOc1ccc(NC(=O)CSc2nc3nc(C)c(Cc4ccccc4)c(C)n3n2)cc1 10.2%
COc1cc(C(=O)NCC(c2ccc(N(C)C)cc2)N2CCCC2)cc(OC)c1OC (stereo not given) 0%
COc1ccc(/C=C(\C#N)c2nc(-c3ccc(Cl)c(Cl)c3)cs2)cc1OC -5.63%
CCc1ccc(NC(=O)CSc2nc(=O)n(Cc3cccnc3)c3c2CCC3)cc1 -1.05%
CC(=O)c1ccc(NC(=O)CN2C(=O)c3cccnc3Sc3ccccc32)cc1 -10%
O=C(COc1ccccc1F)NC1CC(=O)N(c2ccc3c(c2)OCCO3)C1 (stereo not given) 0.415%
Cc1ccc(-c2nc3ccc(Br)cn3c2Nc2ccc3c(c2)OCO3)o1 0.126%
CCc1ccccc1NC(=O)CSc1nc2c(oc3ccccc32)c(=O)n1-c1ccccc1 -3.14%
COc1ccccc1Cn1c(CNS(=O)(=O)c2ccc(Cl)s2)nc2cccnc21 -12.9%
CCOc1ccccc1CNS(=O)(=O)c1cnc(N)nc1 -2.45%
CCOC(=O)c1cccc(NC(=O)Cc2ccc(NC(=O)N3CCCCc4ccccc43)cc2)c1 1.62%
COc1ccc(-n2c(CCC(=O)O)ccc2-c2ccccc2)cc1 0.434%
CC(=O)c1cccc(NC(=O)Cn2cnc3c2c(=O)n(C)c(=O)n3C)c1 -16.7%
CCOC(=O)c1c(C)[nH]c(C)c1S(=O)(=O)N1CCCC(C(=O)N2CCN(c3ccc(Cl)cc3)CC2)C1 (stereo not given) 0%
CCOC(=O)c1[nH]c(C)c(CCC(=O)N2CCN(c3cc(Cl)ccc3C)CC2)c1C -8.11%
Cc1nnc(N2CCN(c3ccccc3)CC2)c2c1nnn2Cc1ccc(F)cc1 -1.73%
O=C(Nc1ccccc1C(=O)OCc1cc(=O)n2c3c(sc2n1)CCCC3)c1ccc(Cl)cc1 0%
Cc1ccc(C)c(NC(=O)CCn2cnnn2)c1 -2.25%
O=C1Nc2c(c(=O)[nH]c(=O)n2-c2ccc(Cl)cc2)C1(NS(=O)(=O)c1ccccc1)C(F)(F)F (stereo not given) -2.13%
CCOC(=O)c1ccc(N2CCN(c3cccc(Cl)c3)CC2)c(NC(=O)Nc2ccc(Cl)cc2)c1 10.3%
O=C(Nc1ccc(F)cc1F)c1ccc(-c2ccccc2)s1 -3.95%
Cc1ccc2nc(CSc3nnc(NC(=O)COc4ccccc4F)s3)cc(=O)n2c1 0.179%
Nc1c(C(=O)c2ccc3c(c2)OCO3)sc(Nc2ccccc2F)c1S(=O)(=O)c1ccccc1 -9.75%
COc1ccc(C)cc1N(CC(=O)N1CCC(C)CC1)S(=O)(=O)c1ccc(C)cc1 2.44%
COc1ccc(C2CC(=O)c3cc(-c4nc(-c5cccc([N+](=O)[O-])c5)cs4)c(=O)n(-c4cc(C)cc(C)c4)c3C2)cc1 (stereo not given) -9.67%
CCOC(=O)CSc1nc2sc3c(c2c(=O)n1CC)CCCC3 -5.94%
Cn1c(=O)c2c(-c3ccccc3Br)n(C(C)(C)C)cc2n(C)c1=O -6.75%
O=C(CCCn1c(=O)c2sccc2n(Cc2c(F)cccc2Cl)c1=O)NCc1ccccc1 -1.09%
CCCC(=O)Nc1ccc2nn(-c3ccc(CC)cc3)nc2c1 -20.7%
Cc1cnc2c(c1SCC(=O)N(C)c1ccccc1)c(=O)n(C)c(=O)n2C -0.107%
Cc1ccc(N2CCN(Cc3nnc(-c4ccc5c(c4)OCO5)o3)CC2)c(C)c1 -1.39%
Cc1cc(C)cc(NC(=O)CSCc2cc(=O)c3cc(Cl)ccc3[nH]2)c1 -6.05%
Cc1cccc(NC(=O)Cn2nc(C)c3nn(-c4ccc(Cl)cc4)c(C)c3c2=O)c1C -6.1%
COc1ccccc1N1CCN(C(=O)c2ccc3c(c2)N(Cc2ccccc2)C(=O)c2ccccc2S3(=O)=O)CC1 0.753%
CC1(C)CC(=O)c2cc(-c3nc(-c4ccc(Br)cc4)cs3)c(=O)n(-c3ccccc3)c2C1 -13.5%
O=C(c1cnc(N2CCOCC2)c2ccccc12)N1CCN(c2ccc(F)cc2)CC1 0.4%
Cc1c(-c2nc(-c3ccc4c(c3)[nH]c(=O)n4C)no2)cccc1[N+](=O)[O-] -0.976%
Cc1cccc(-c2noc(CN(C(C)C)S(=O)(=O)c3ccc(Br)cc3)n2)c1 3.97%
O=C1c2ccccc2-c2onc3c(Br)cc(NC4CCCCC4)c1c23 3.9%
O=C(CSc1nnc(-c2cccs2)o1)Nc1cccc(C(F)(F)F)c1 1.42%
Cc1cccc(N2C(=O)CSC23C(=O)N(CC(=O)NCCc2ccccc2)c2ccccc23)c1 (stereo not given) -9.31%
COCCNC(=O)CSc1nc2cc3c(cc2c(=O)n1CCCCCC(=O)NCCc1ccc(OC)c(OC)c1)OCO3 0.312%
COc1ccc(-c2cc(C(F)(F)F)n3nc(-c4ccc(Cl)cc4)cc3n2)cc1OC -1.78%
O=C(Cc1ccccc1)NC1CC(=O)N(c2ccc3c(c2)OCCO3)C1 (stereo not given) 0.848%
Cc1c(CC(=O)N2CCCCC2)c(=O)oc2c(C)c(O)ccc12 2.9%
Cc1cc2c(cc1S(=O)(=O)CCC(=O)NCc1ccccc1)OCC(=O)N2 5.08%
O=C(OCc1ccccc1F)c1ccc(-c2nnn(Cc3ccccc3)n2)cc1 -5.72%
CCN(CC)c1ccc(NC(=O)C(NS(=O)(=O)c2cccs2)C(C)C)c(C)c1 (stereo not given) -16.9%
CN(C(=O)c1cnc(N2CCOCC2)c2ccccc12)c1ccccc1F -0.582%
COc1ccc(-n2nnnc2C2CCN(S(=O)(=O)c3cccc(Cl)c3C)CC2)cc1 -7.72%
COC(=O)c1ccc2c(c1)N(CC(=O)Nc1ccc(C)c(C)c1)C(=O)c1ccccc1S2 3.42%
CCS(=O)(=O)N1CCc2cc(C(=O)Nc3cc(C)cc(C)c3)ccc21 -0.332%
Cc1ccc(C)c(N2CCN(C(=O)NCc3noc4ccccc34)CC2)c1 -8.08%
Cc1cc2oc(C(=O)Nc3sc4c(c3C(=O)NCC3CCCO3)CCCC4)cc(=O)c2cc1C (stereo not given) 0.329%
Cc1ccc2nc(Nc3cccc(C(F)(F)F)c3)c3nnnn3c2c1 -1.31%
Cn1c(=O)c2c(-c3ccc(Cl)cc3)ccnc2n(C)c1=O -10.2%
O=S(=O)(NCC(c1ccco1)N1CCN(c2ccc(F)cc2)CC1)c1cc(F)ccc1F (stereo not given) -3.49%
COc1ccc(CCNC(=O)c2ccc3[nH]c(C)c(C)c3c2)cc1OC -4.86%
CCc1c(C)sc(NC(=O)c2cc(-c3ccc(OC)c(OC)c3)on2)c1C#N -1.57%
COc1ccc(OC)c(CCNc2nc3cc(OC)c(OC)cc3c3nc(-c4cccnc4)nn23)c1 -1.13%
CCCCN(CC)CCNC(=O)CN1C(=O)COc2ccc(S(=O)(=O)N3CCOCC3)cc21 -7.29%
CCOc1ccccc1CNC(=O)CN1C(=O)c2cccnc2Oc2ccc(Cl)cc21 -3.69%
COc1ccc(S(=O)(=O)N2CCCCC2)cc1C(=O)NC1CCS(=O)(=O)C1 (stereo not given) -1.85%
Cc1ccc(C(=O)c2cn(Cc3ccccc3)c3c(F)cc(F)cc3c2=O)cc1 -15.6%
O=C(Nc1ccccc1)c1ccc(Cl)c(S(=O)(=O)Nc2ccccc2)c1 -3.27%
CCS(=O)(=O)N1CCC2(CC1)OC(=O)C(C)=C2C(=O)NCc1ccc(OC)c(OC)c1 -3.51%
COc1ccc(N2CCN(C(=O)c3cn(C)c4ccc(S(=O)(=O)N5CCOCC5)cc4c3=O)CC2)cc1 1.17%
CCC1Oc2ccccc2N(CC(=O)NCc2ccccc2)C1=O (stereo not given) 12.7%
Cc1cc(Nc2cccc(Cl)c2)nc2ccc(NC(=O)Cc3c(F)cccc3Cl)cc12 -11.7%
Cn1c(=O)c(=O)n(C)c2cc(N3CCCC3)c(NC(=O)c3ccccc3Cl)cc21 0.814%
COc1ccc2nc(N(Cc3cccnc3)C(=O)c3ccc(Cl)cc3)sc2c1 -6.4%
CCn1c(=O)c2sccc2n2c(CCCC(=O)Nc3ccc(Oc4ccccc4)cc3)nnc12 -1.72%
CCOc1ccccc1CNC(=O)CN1C(=O)c2cccnc2Oc2ccc(C)cc21 -3.59%
COc1ccc(-c2noc(CC(=O)N(C)c3cc(Cl)c(OC)cc3OC)n2)cc1 -3.92%
